# Measured values: patent US20250297021A1 (SHANDONG SIMCERE BIOPHARMACEUTICAL CO NO 1, published 2025)
# T1: human BCMA on cells (human, UniProt Q02223 1-184)
# T1 construct: whole, on cells; also called H929 cells; U266 cells
# T1 sequence (looked up): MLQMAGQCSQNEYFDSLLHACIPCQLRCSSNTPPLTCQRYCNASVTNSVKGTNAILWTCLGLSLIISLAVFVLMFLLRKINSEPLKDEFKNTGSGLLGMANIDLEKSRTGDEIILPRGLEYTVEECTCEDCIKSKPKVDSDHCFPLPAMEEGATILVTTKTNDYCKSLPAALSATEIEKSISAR
# T2: human BCMA-His protein (human, UniProt Q02223 1-54)
# T2 construct: bought; also called human BCMA protein; not shown: His tag
# T2 sequence (looked up): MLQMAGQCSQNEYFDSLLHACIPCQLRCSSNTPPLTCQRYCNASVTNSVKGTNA
# B1: BCMA-mAb06 (Fc fusion)
# scFv: EVKLLQSGGGLVQPGGSLKLSCAASGIDFSRYWMSWVRRAPGKGLEWIGEINPDSSTINYAPSLKDEFIISRDNAKNTLYLQMSKVRSEDTALYYCAIFYYANYYAMDYWGQGTSVTVSSGGGGSGGGGSGGGGSDIVMTQSQKFMSTSVGDRVSVTCKASQNVDTNVAWYQQKPGQSPKALIYSASYRFSGVPDRFTGSGSGTDFTLTISNVQSEDLAEYFCQQYNGYPFTFASGTKLEIK[human IgG1 Fc with C220S (EU numbers) not spelt out]
# Key:
# human BCMA on cells [1] = target: T1, human BCMA on cells; assay: cell ELISA, Flp-inCHO-human BCMA cells; Ab 0.14 nM
# Description: (§1) The specific method was as follows: The required cells were scale-up cultured in a T-75 cell culture flask to the logarithmic growth phase, the medium was aspirated, the cells were washed twice with a PBS buffer, and then digested with trypsin. Then the digestion was terminated with a complete medium, and the cells were pipetted to obtain a single cell suspension. After the cells were counted and centrifuged, the cell precipitate was resuspended to 4×10⁵ cells per milliliter with a complete medium, and the suspension was added to a 96-well flat-bottomed cell culture plate at 100 μl/well, and cultured overnight in a 37° C., 5% carbon dioxide incubator. On the next day, the medium in the 96-well plate was discarded, the cells were washed once with PBS, and then fixed at room temperature for 0.5 h with an immunostaining fixative (purchased from Beyotime, catalog number: P0098-500 ml) at 50 μl/well. A blocking solution [PBS+5% (w/v) skim milk] was added for blocking at room temperature for 2 h. The blocking solution was discarded, the plate was washed 3 times with PBS, and 100 nM BCMA human-mouse chimeric antibody diluted gradiently or control antibody was added at 50 μl/well. After incubation at 37° C. for 2 h, the plate was washed 3 times with PBS. HRP (horseradish peroxidase)-labeled secondary antibody (purchased from Merck, catalog number: AP113P) was added, and incubated at 37° C. for 1 h, and the plate was washed 5 times with PBS. TMB substrate was added at 50 μl/well, and incubated at room temperature for 10 min, then a stop solution (1.0 M HCl) was added at 50 μl/well. The OD450 nm values were read by an ELISA microplate reader (Multimode Plate Reader, EnSight, purchased from Perkin Elmer). The chimeric antibodies bind well to Flp-inCHO-human BCMA cells. The IgG subtype control is human IgG1.
# human BCMA-His protein = target: T2, human BCMA-His protein; assay: ELISA, human BCMA-His coated; Ab 0.0001 nM
# Method: (§2) The specific method was as follows: Human BCMA protein (purchased from Acro, catalog number: BCA-H522y) and monkey BCMA protein (purchased from Acro, catalog number: BCA-C52H7) were diluted with PBS to a final concentration of 1 μg/mL, respectively, and then added to a 96-well ELISA plate at 50 μl/well. The plate was sealed with a plastic film and incubated overnight at 4° C., the plate was washed twice with PBS the next day, and then a blocking solution [PBS+2% (w/v) BSA] was added for blocking at room temperature for 2 h. The blocking solution was discarded, the plate was washed 3 times with PBS, and 100 nM BCMA human-mouse chimeric antibody diluted gradiently or control antibody was added at 50 μl/well. After incubation at 37° C. for 2 h, the plate was washed 3 times with PBS. HRP (horseradish peroxidase)-labeled secondary antibody (purchased from Merck, catalog number: AP113P) was added, and incubated at 37° C. for 1 h, and the plate was washed 5 times with PBS. TMB substrate was added at 50 μl/well, and incubated at room temperature for 10 min, then a stop solution (1.0 M HCl) was added at 50 μl/well. The OD450 nm values were read by an ELISA microplate reader (Multimode Plate Reader, EnSight, purchased from Perkin Elmer). The results are shown in Table 7, Table 8 and FIGS. 7A-7B and FIG. 8A-8B. All chimeric antibodies have good binding activity with human BCMA protein; except that BCMA-mAb06 has no cross-binding activity with monkey BCMA protein and BCMA-mAb07 has weak binding to monkey BCMA protein, other chimeric antibodies have good binding activity with monkey BCMA protein. The IgG subtype control is human IgG1.
# monkey BCMA-His protein [2] = target: T3, monkey BCMA-His protein (monkey, UniProt A0A2K5UD97 1-53); assay: ELISA, monkey BCMA-His coated; Ab 0.001 nM
# T3 construct: bought; monkey species not further stated for this product; also called monkey BCMA protein
# Method: as §2
# monkey BCMA-His protein [3] = target: T3, monkey BCMA-His protein; assay: ELISA, monkey BCMA-His coated; Ab 100 nM
# Method: as §2
# human BCMA on cells [4] = target: T1, human BCMA on cells; assay: cell ELISA, Flp-inCHO-human BCMA cells; Ab 33.33 nM
# Description: as §1
# human BCMA on cells [5] = target: T1, human BCMA on cells; assay: cell ELISA, Flp-inCHO-human BCMA cells; Ab 0.05 nM
# Description: as §1
# human BCMA on cells [6] = target: T1, human BCMA on cells; assay: cell ELISA, Flp-inCHO-human BCMA cells; Ab 0.41 nM
# Description: as §1
# monkey BCMA-His protein [7] = target: T3, monkey BCMA-His protein; assay: ELISA, monkey BCMA-His coated; Ab 10 nM
# Method: as §2
# monkey BCMA-His protein [8] = target: T3, monkey BCMA-His protein; assay: ELISA, monkey BCMA-His coated; Ab 0.0001 nM
# Method: as §2
# monkey BCMA-His protein [9] = target: T3, monkey BCMA-His protein; assay: ELISA, monkey BCMA-His coated; Ab 1 nM
# Method: as §2
# human BCMA on cells [10] = target: T1, human BCMA on cells; assay: cell ELISA, Flp-inCHO-human BCMA cells; Ab 1.23 nM
# Description: as §1
# monkey BCMA-His protein [11] = target: T3, monkey BCMA-His protein; assay: ELISA, monkey BCMA-His coated; Ab 0.1 nM
# Method: as §2
# human BCMA on cells [12] = target: T1, human BCMA on cells; assay: cell ELISA, Flp-inCHO-human BCMA cells; Ab 0.002 nM
# Description: as §1
# monkey BCMA-His protein [13] = target: T3, monkey BCMA-His protein; assay: ELISA, monkey BCMA-His coated; Ab 0.01 nM
# Method: as §2
# T3 sequence (A0A2K5UD97 entry or part of it limits assumed): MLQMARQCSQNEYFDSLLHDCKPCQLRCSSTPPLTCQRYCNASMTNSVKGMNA
binder,measurement,setting,value
B1,OD450,human BCMA on cells [1],0.44
same,OD450,human BCMA-His protein,0.09
same,OD450,monkey BCMA-His protein [2],0.05
same,OD450,monkey BCMA-His protein [3],0.81
same,OD450,human BCMA on cells [4],1.21
same,OD450,human BCMA on cells [5],0.27
same,OD450,human BCMA on cells [6],0.74
same,OD450,monkey BCMA-His protein [7],0.32
same,OD450,monkey BCMA-His protein [8],0.05
same,OD450,monkey BCMA-His protein [9],0.15
same,OD450,human BCMA on cells [10],0.99
same,OD450,monkey BCMA-His protein [11],0.1
same,OD450,human BCMA on cells [12],0.09
same,OD450,monkey BCMA-His protein [13],0.07
